# Laboratory results as given in article PMC6919601, “Identification of Plasmodium dipeptidyl aminopeptidase allosteric inhibitors by high throughput screening” (PLoS ONE, 2019).
# Among all 110,000 compounds or so, about 230 (0.21%) showed an effect of 50% or more. This is one part of the list.
# Target: DPAP1 (Plasmodium falciparum, UniProt Q8IIJ9)
# Assay: primary screen, percent inhibition; read by cleavage of a fluorogenic dipeptide substrate; higher = more effect of the substance
# Design: species or system P. falciparum D10 trophozoite lysates; single well
# 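Also: 30 min substrate incubation versus DMSO and 10 µM JCP410 controls.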
# Chain of DPAP1 (Q8IIJ9 whole entry, looked up): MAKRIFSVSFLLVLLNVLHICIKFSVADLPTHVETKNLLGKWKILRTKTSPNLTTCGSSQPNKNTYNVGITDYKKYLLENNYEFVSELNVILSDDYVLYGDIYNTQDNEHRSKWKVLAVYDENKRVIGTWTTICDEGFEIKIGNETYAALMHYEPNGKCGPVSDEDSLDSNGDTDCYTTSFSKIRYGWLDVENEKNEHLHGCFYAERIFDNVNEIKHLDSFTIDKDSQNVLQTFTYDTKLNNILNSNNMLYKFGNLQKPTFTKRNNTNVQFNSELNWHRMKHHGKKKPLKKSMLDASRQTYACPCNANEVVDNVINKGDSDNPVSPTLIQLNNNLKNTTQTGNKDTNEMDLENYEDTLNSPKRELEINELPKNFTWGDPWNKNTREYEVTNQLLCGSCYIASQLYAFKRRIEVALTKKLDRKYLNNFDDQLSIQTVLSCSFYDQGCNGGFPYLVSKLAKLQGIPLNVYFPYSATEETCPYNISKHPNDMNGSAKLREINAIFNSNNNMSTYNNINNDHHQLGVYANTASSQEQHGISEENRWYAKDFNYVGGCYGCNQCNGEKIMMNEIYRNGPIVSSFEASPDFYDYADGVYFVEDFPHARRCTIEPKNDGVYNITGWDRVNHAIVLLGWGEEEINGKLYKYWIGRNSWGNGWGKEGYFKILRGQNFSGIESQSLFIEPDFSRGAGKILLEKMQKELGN
row,Compound,% Inhibition @ 10 uM [%]
1,Cc1ccc(S(=O)(=O)Nc2sc3c(c2C(N)=O)CCCCCC3)cc1,10.6
2,Cc1ccc2nc(NC(=O)C3CCN(S(=O)(=O)c4cccc5nsnc45)CC3)sc2c1,-1.76
3,CCOc1ccc(/C=C/c2nc3ccccc3nc2O)cc1,4.94
4,CCCOc1ccc(NC(=O)CCCN2C(=O)c3ccccc3C2=O)cc1,-5.9
5,CCOc1ccc(-n2c(C)nc3cc(C(=O)N4CCC5(CC4)OCCO5)ccc32)cc1,-2.17
6,O=C(NCCc1c[nH]c2ccccc12)c1cc2c(Cl)ccc3c2n1CCO3,5.06
7,Cc1ccc(S(=O)(=O)Nc2cc(C)ccn2)cc1,1.69
8,Cc1ccc(S(=O)(=O)NCCCCCC(=O)N2CCCCC2)cc1,0.884
9,CC(C)CCNC(=O)c1cccc(C(=O)NCCC(C)C)c1,-3.18
10,CS(=O)(=O)N1CCN(c2ccc([N+](=O)[O-])cc2Cl)CC1,0.345
11,O=C(Cn1ncc2c3ccccc3n(Cc3ccccc3)c2c1=O)NCCCN1CCOCC1,0.137
12,CCOC(=O)c1c(C)[nH]c(C)c1S(=O)(=O)N1CCC(C(=O)N(C)Cc2ccco2)CC1,1.05
13,COc1ccc(C(=O)n2nc(-c3ccco3)nc2N)cc1,4.58
14,N#CC1=C(N)N(c2ccccc2Cl)C2=C(C(=O)CC(c3ccccc3)C2)C1c1cccnc1 (stereo not drawn),-6.62
15,N#C/C(=C/c1ccccc1Cl)c1nc(-c2ccccc2)cs1,-1.97
16,O=C1c2ccccc2-c2onc3ccc(Oc4ccccc4)c1c23,5.8
17,CC1=C(CCC2(C)OC(=O)N(C3CC(C)(C)NC(C)(C)C3)C2(C)O)C(C)(C)CCC1 (stereo not drawn),3.99
18,CNC(=O)CCCc1cn(Cc2ccc(C)cc2)c2ccccc12,3.27
19,COc1cc(C2C(C#N)=C(N)Oc3cc4c(cc32)OCO4)ccc1OCc1cccc(F)c1 (stereo not drawn),-0.366
20,CCCCN(CCCC)C(=O)C1CCCN1S(=O)(=O)c1cccc2nsnc12 (stereo not drawn),1.26
21,CCc1ccc(NC(=O)CN2C(=O)S/C(=C/c3ccc(O)cc3)C2=O)cc1,6.24
22,Cc1ccc(C(=O)Nc2ccc(S(=O)(=O)Nc3cc(C)on3)cc2)cc1,-5.1
23,COc1ccc(C2c3sc(O)nc3SC3C4CCC(C4)C23)cc1OC (stereo not drawn),31.8
24,CC(Cc1ccc(F)cc1)N1CCN(Cc2ccccc2)CC1 (stereo not drawn),-5.31
25,N#CCNC(=O)[C@H](CSCc1ccccc1)NC(=O)OCc1ccccc1,-1.83
26,O=C(CCSCCC(=O)NCc1ccccc1)NCc1ccccc1,-3.65

row,Compound,% Inhibition @ 10 uM [%]
1,O=C1/C(=C/c2ccco2)C(=O)N(c2ccc(Br)cc2)C(=S)N1c1ccccc1,16.3
2,Cc1nn(Cc2c(Cl)cccc2Cl)c(C)c1NC(=O)c1cc(-c2ccco2)on1,-0.591
3,CCC(=O)Nc1nonc1-c1nc2ccccc2n1Cc1ccc(F)cc1Cl,1.52
4,O=C1NC(c2ccccc2OCc2ccccc2)Nc2ccccc21 (stereo not drawn),3.49
5,O=C(O)CCC(=O)Nc1ccccc1C#Cc1ccccc1,-0.546
6,CC(C)c1ccc(/C=C/C(=O)N2CCOCC2)cc1,-1.38
7,COC(=O)c1ccccc1NC(=O)C(C)Oc1ccccc1 (stereo not drawn),2.64
8,CCc1nc(O)c2c(n1)-c1ccccc1CC21CCCCC1,5.61
9,COc1ccccc1/C=C(\C#N)c1nc(-c2ccc(-c3ccccc3)cc2)cs1,-6.07
10,CCC1CCC(N2CCC(C(N)=O)CC2)CC1 (stereo not drawn),-3.5
11,O=C(O)c1ccc(-n2cc(CNCc3ccccc3Cl)c3ccccc32)s1,-3.53
12,Cc1cc(/C=C2\SC(N)=NC2=O)c(C)n1-c1ccc(Cl)cc1,-2.94
13,CC1=C(C(=O)Nc2cccc(C)c2C)C(c2ccc(F)cc2)NC(=O)N1 (stereo not drawn),-4.39
14,CCCCNC(=O)Cn1c2ccccc2c2cnnc(O)c21,-0.281
15,O=C(CSC1=NCCS1)Nc1nc2ccccc2s1,2.26
16,CCc1nc2sc(C#N)c(N)c2c2c1CCCC2,-1.37
17,CC1(C)CC2=Nc3ccccc3NC(c3cccs3)C2=C(O)C1 (stereo not drawn),6.83
18,Cc1c2c(cc3c1oc(=O)c1ccccc13)CN(Cc1ccccc1)CO2,-2.57
19,O=C1C(Cl)=C(N2CCNCC2)C(=O)c2ccccc21,7.68
20,CN1CC=C2C(C#N)=C(N)C(C#N)(C#N)C(c3cccc4ccccc34)C2C1 (stereo not drawn),-3.48
21,COc1ccc(OC)c(C2NC(=O)NC(C)=C2C(=O)OCC(F)(F)F)c1 (stereo not drawn),1.13
22,CCCN1CCC(NCCOC)CC1,-2.18
23,N#CCNC(=O)[C@H](Cc1ccc2ccccc2c1)NC(=O)OCc1ccccc1,0.744
24,CC1=NN(c2ccccc2)C(=O)/C1=C\c1cccnc1,11
25,CCSc1nc(-c2cccs2)cc(C(F)(F)F)c1C#N,82.6
26,COc1ccc(CC(=O)Nc2cccc(N)c2)cc1OC,-4.86

row,Compound,% Inhibition @ 10 uM [%]
1,CCC(C)NC(=O)Cn1nc(C)n2c(cc3cc(C)ccc32)c1=O (stereo not drawn),3.29
2,CCC(=O)N1N=C(c2cccs2)CC1c1ccco1 (stereo not drawn),-6.07
3,COc1ccccc1C(=O)Nc1sc2c(c1C#N)CC(C)(C)NC2(C)C,-3.4
4,CCCC[C@H](NC(=O)[C@H](Cc1ccc2ccccc2c1)NC(=O)c1ccc(CN)cc1)C(=O)COCc1ccccc1,-0.778
5,CC(=O)N(C)c1ccc(NC(=O)COc2cc(C)ccc2C)cc1,1.07
6,c1csc(-c2nc3cc4ccccc4cc3[nH]2)c1,-2.48
7,O=C(NCCC1=CCCCC1)C1CCN(S(=O)(=O)c2cccc3cccnc23)CC1,3.53
8,CCCCNC(=O)Cn1nc(C)c2c(C)n(-c3ccccc3)nc2c1=O,3.66
9,COc1cccc(C(=O)Nc2ccc(NC(=O)c3ccccc3)cc2)c1,-1.91
10,Cc1ccccc1C(=O)n1nc(-c2ccco2)nc1NCc1ccccc1,1.9
11,CC(C)(O)C#Cc1ccc(C(=O)N2CCN(c3cccc(Cl)c3)CC2)cc1,-3.85
12,CC(=O)C1=C(C)N=C(S)NC1c1ccccc1F (stereo not drawn),-4.8
13,COc1ccc([C@@H]2[C@H]3CCCC[C@]3(O)CCN2C(C)=O)c(OC)c1OC,-5.96
14,CCc1nc2ccc(C(=O)NCCc3ccc(Cl)cc3)cc2nc1CC,-6.82
15,CC(C)CN(CC(C)C)c1ncnc2ccccc12,1.15
16,CC(C)Oc1ccc(C2N3CCCN23)cc1 (stereo not drawn),-2.88
17,Cc1cc(-n2nc(C)cc2C)nc(-c2ccccc2)n1,0.215
18,CC1(C)OC(C(=O)NC2CCCCC2)C(C(=O)NC2CCCCC2)O1 (stereo not drawn),13
19,CC(C)C[C@H](/N=C(\NCC(F)(F)F)c1ccccc1)C(=O)NCC#N,-1.82
20,COc1cccc(CN2CCN(Cc3cccnc3)CC2)c1OC,-4.59
21,COc1ccc(Br)cc1CN(CCN(C)C)Cc1ccccc1,-1.5
22,CC(C)(C)c1cc(N2CCCCC2)ncn1,3.24
23,Cc1cc(O)nc(SCC(=O)Nc2cccc(Cl)c2C)n1,0.673
24,Cc1cc(C)c(C#N)c(SCC(=O)Nc2ccccc2Br)n1,2.36
25,COc1cccc(CN2CCN(c3ccc([N+](=O)[O-])cc3)CC2)c1,-0.261
26,CCNc1nc(N2CCOCC2)nc(N(c2ccccc2)c2ccccc2)n1,1.29

row,Compound,% Inhibition @ 10 uM [%]
1,COc1ccc(OC)c(NC2=NS(=O)(=O)c3ccccc32)c1,8.76
2,CC(=O)Nc1ccc(NC(=O)Cc2ccccc2)cc1,-5.61
3,Cc1nc2c(sc3nc(C)c(C)c(C)c32)c(=O)o1,-3.63
4,Cn1c(=O)c2c(ncn2CC(=O)N2CCN(Cc3ccc4c(c3)OCO4)CC2)n(C)c1=O,1.84
5,COC(=O)c1c(NC(=O)Cc2coc3c(C)c(C)ccc23)sc2c1CCCC2,-0.671
6,COC(=O)c1ccc2c(c1)C(=O)/C(=C/C=C/c1ccccc1)O2,0.291
7,O=C(Nc1c2c(nc3c1CCC3)CCCC2)c1ccccn1,-5.07
8,N/C(=N\c1ccc2c(c1)OCCO2)Nc1nc(O)c2c(n1)CCC2,3.67
9,Cc1ccccc1CSc1nc2c(c(=O)n(C)c(=O)n2C)n1C,-3.63
10,CC(C)(C)c1ccc(-c2noc(CCC(=O)N3CCOCC3)n2)cc1,1.25
11,COc1ccccc1NC(=O)c1ccccc1NC(=O)c1ccccc1O,7.35
12,COc1ccc(C(O)(CCN2CCOCC2)c2ccccc2)cc1 (stereo not drawn),0.558
13,Fc1ccc2[nH]c3nc(S)nnc3c2c1,56
14,CC(NC(=O)Cn1ncc2c(Cl)cccc21)c1ccc2c(c1)OCCO2 (stereo not drawn),0.596
15,COc1ccc(S(=O)(=O)Cc2ccc(C(=O)N3CCN(c4ccccn4)CC3)o2)cc1,-1.28
16,O=C(CCn1cnc2onc(-c3ccc(F)cc3)c2c1=O)N1CCC(Cc2ccccc2)CC1,3.1
17,C=CCNC(=O)c1cc(-c2cccc(C)c2)nc2ccccc12,-7.08
18,CCN1CCN(C(=O)c2ccccc2C(=O)O)CC1,-2.67
19,O=C1C(=O)N(C2CCCCC2)C(=O)N1c1ccc2ccccc2c1,-4.61
20,Cc1ccc(C(=O)Nc2ccc([N+](=O)[O-])cc2)cc1,-0.351
21,COc1ccc(/N=c2\oc(C)cc(O)c2C(C)=O)c(OC)c1,2.36
22,Cc1cc(-c2cccnc2)c2c(N)c(C(=O)C34CC5CC(CC(C5)C3)C4)sc2n1,2.38
23,COCCNC(=O)C1CC(=O)N(Cc2ccc(OC)cc2)C1 (stereo not drawn),1.62
24,Cc1cc(C2C(C#N)=C(N)N(c3cccnc3)C3=C2C(=O)CC(c2ccccc2)C3)c(C)s1 (stereo not drawn),-4.93
